Results taken from PubChem BioAssay AID1347120 (National Center for Advancing Translational Sciences (NCATS), 2019).
The whole screen tested about 390,000 compounds, of which about 930 (0.24%) were called active. Inconclusive means that the source gave no clear call. Such entries were picked first, then a sample of the others. The call rests on the fitted dose curve; in most records, active means well fitted activation curve with a large enough effect; inconclusive means small, poorly fitted or top-dose-only effect; inactive means no such curve, though single readings can be large or run the other way. A potency beside an inconclusive call is a rough fit, not a confirmed value.

Test: qHTS for Suppressors of FUS Proteinopathy: Primary screen using FUS-linked yeast assay; further: nearly all actives have a fitted effect of over 55% in size;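 on growth rescue (activation): plate controls were DMSO vehicle for no effect and reference control for full effect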
Details: S. cerevisiae FUS-expressing, OD600, 24 h; Potency: growth rescue; growth rescue (activation): at 76.6 µM (top of the series)
Outline: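 Compound concentration series was pinned onto galactose-induced FUS-expressing yeast seeded at OD 0.005. Plates sat 24hr at 30C; absorbance at 600 nm gave growth. DMSO served as background control.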
Potency means the concentration at half of the fitted maximal effect; tags describe the fitted curve by direction and shape.

SMILES | Potency | growth rescue (activation)
CC1C(=O)N(Cc2cn(Cc3ccco3)nn2)CCS(=O)(=O)N1Cc1ccc(-c2ccccc2C(F)(F)F)cc1 (stereo not drawn) | inconclusive: 20 µM [activator, partial curve, poor fit] | –
COc1ccccc1-c1sc2ccccc2c1-c1ccc(OCCN2CCOCC2)cc1 | inconclusive: 22.4 µM [activator, single point] | –
C#CCN1C(=O)[C@]2(NCCc3c2[nH]c2ccc(OC)cc32)c2cc(F)ccc21 | inactive | –
CC(C)c1ccccc1NC(=O)c1cccc(NC(=O)c2ccccc2)c1 | inconclusive: 25.1 µM [activator, single point] | –
NC(N)=NC(N)=Nc1ccc2ccccc2c1 | inactive | –
O=C(Nc1cccc(C(F)(F)F)c1)c1cccnc1N1CCN(c2ccccc2)CC1 | inconclusive: 50.1 µM [activator, single point] | –
CC(=O)N1CCN(c2ccc(NCc3ccc(-c4ccc(Br)cc4)o3)cc2)CC1 | inconclusive: 35.5 µM [activator, single point] | –
CCOC(=O)c1c(NC(=O)CSc2cn(CCNC(=O)c3ccc(OC)cc3)c3ccccc23)sc2c1CCCC2 | inconclusive: 28.2 µM [activator, single point] | –
O=C(Nc1ccc(OC(F)(F)F)cc1)Nc1cccc([N+](=O)[O-])c1 | inactive | –
COc1ccc([C@@H]2[C@@H]3C(=O)N(C(C)(C)C)C(=O)[C@@H]3[C@]3(Cc4ccccc4)C(=O)N(c4ccc(OC)cc4)C(=O)N23)cc1 | inconclusive: 4.47 µM [activator, full curve] | –
COc1cccc(C2C(C(=O)c3cc4cccc(OC)c4o3)=C(O)C(=O)N2c2cc(C)on2)c1OC (stereo not drawn) | inconclusive: 25.1 µM [activator, single point] | –
Cc1cccc(Nc2nc(N)c([N+](=O)[O-])c(N3CCCC(C)C3)n2)c1 (stereo not drawn) | inactive | –
CCN(CC(=O)Nc1ccc(NC(C)=O)cc1)C(=O)/C=C/c1cn(-c2ccccc2)nc1-c1cccs1 | inconclusive: 35.5 µM [activator, single point] | –
Cc1cc(NC(=O)c2cc(C(C)C)on2)nn1Cc1ccc(Cl)cc1 | inconclusive: 12.6 µM [activator, partial curve] | –
O=C(O)c1ccc(N/N=C/c2cccc(F)c2)cc1 | inactive | –
O=C(Nc1ccc(S(=O)(=O)Nc2ncccn2)cc1)c1ccccc1NS(=O)(=O)c1ccc(Cl)cc1 | inconclusive: 11.2 µM [activator, single point] | –
CCOc1ccc2nc(NC(=O)C(NS(=O)(=O)c3cccc4nsnc34)C(C)C)sc2c1 (stereo not drawn) | inconclusive: 39.8 µM [activator, single point] | –
CSc1nc(-c2ccc(C)cc2)[nH]c1S(=O)(=O)c1ccccc1 | inactive | –
CNC(=O)c1ccc2c(c1)N(Cc1cc(C)ccc1C)C(=O)c1ccccc1S2 | inconclusive: 17.8 µM [activator, partial curve, poor fit] | –

SMILES | Potency | growth rescue (activation)
O=C(NC1CCCCC1)C(c1ccccc1)n1c(=O)c(-c2cc3ccccc3[nH]2)nc2ccccc21 (stereo not drawn) | inconclusive: 35.5 µM [activator, single point] | –
Cc1ccc(C2=CSC3=NS(=O)(=O)CCN23)cc1 | inconclusive: 50.1 µM [activator, partial curve, poor fit] | –
Cc1nc(SCc2nc3cc(Cl)c(F)cc3[nH]2)c2oc3ccccc3c2n1 | inconclusive: 31.6 µM [activator, single point] | –
O=C(Nc1ccc(Cl)c(Cl)c1)N[C@@H]1CC[C@@H](CCn2cc(C3CCCCC3)nn2)O[C@@H]1CO | inconclusive: 11.2 µM [activator, partial curve] | –
CCC(=O)N1CCc2cc(Br)cc(S(=O)(=O)N3CCCCCC3)c21 | inconclusive: 31.6 µM [activator, single point] | –
CCc1ccc(CNC(=O)Cn2nc(-c3ccc(C)cc3)ccc2=O)cc1 | inconclusive: 50.1 µM [activator, single point] | –
CCOC(=O)[C@@]12CN(C(=O)OC(C)(C)C)CC=C1N(Cc1ccc(OC)cc1)C(=O)[C@H]2CC(=O)NCCC(C)C | inconclusive: 10 µM [activator, full curve, poor fit] | –
O=C(c1ccccc1)c1c2c(cc3sc4ccccc4[n+]13)-c1cccc3cccc-2c13 | inconclusive: 17.8 µM [activator, partial curve, poor fit] | –
COc1cccc(N(C(=O)c2cnccn2)C(C(=O)NC2CCCCC2)c2ccc(Cl)cc2)c1 (stereo not drawn) | – | inconclusive: 60.3% [activator]
COc1ccc(C2=CSC3=C(C(=O)c4cccc(S(=O)(=O)N(C)C)c4)CCN23)cc1 | inconclusive: 7.08 µM [activator, partial curve] | –
COc1ccc(Cl)cc1NC(=O)Cn1ccn(-c2cc(C)cc(C)c2)c(=O)c1=O | inconclusive: 25.1 µM [activator, single point] | –
O=C(COC(=O)c1ccc2ncsc2c1)NCc1ccccc1Cl | inactive | –
N#Cc1ccsc1NC(=O)COc1ccc(-c2nnco2)cc1 | inconclusive: 25.1 µM [activator, single point] | –
COc1ccc2cc3c(N)nn(C(=O)c4ccccc4Cl)c3nc2c1 | inactive | –
CCn1cc(C(=O)NCCc2ccc(OC)c(OC)c2)c(=O)c2cc(S(=O)(=O)N(C)C3CCCCC3)ccc21 | inconclusive: 25.1 µM [activator, single point] | –
CCc1ccc(NC(=O)CN2C(=O)CSc3ccc(S(=O)(=O)N(C)C)cc32)cc1 | inactive | –
COc1ccccc1-c1cccc(-c2nc(C(=O)Nc3nccs3)cc3c2[C@@H](CCO)N(C(=O)CC2CC2)C3)c1 | inconclusive: 25.1 µM [activator, partial curve, poor fit] | –
CC1CCN(S(=O)(=O)c2ccc3c(c2)oc(=O)n3CC(=O)N2c3ccccc3CC2C)CC1 (stereo not drawn) | inconclusive: 15.8 µM [activator, partial curve, poor fit] | –
CCn1nc(C)c2c(-c3ccccc3)cc(=O)n(C(C)C(=O)NCc3ccccc3OC)c21 (stereo not drawn) | inconclusive: 20 µM [activator, single point] | –
